Measurements taken from PubChem BioAssay AID1347165 (National Center for Advancing Translational Sciences (NCATS), 2019).
Values joined by “and” are separate entries in the source; they are usually repeats but may differ in a detail not shown here. Equal values may be shown once. Among all 220,000 compounds or so, about 5,700 (2.6%) were called active. Inconclusive means that the source gave no clear call. Such entries were picked first, then a sample of the others. The call rests on the fitted dose curve; in most records, active means well fitted inhibition curve with a large enough effect; inconclusive means small, poorly fitted or top-dose-only effect; inactive means no such curve, though single readings can be large or run the other way. Potencies beside an inconclusive call are fits to weak or partial responses and may not hold up.

biological target: Lysine-specific demethylase 5B (Homo sapiens) (UniProt Q9UGL1); assay: Primary screen for KDM5B Histone Demethylases FDH-coupled qHTS; conditions: FDH-coupled NADH fluorescence (FDH is formaldehyde dehydrogenase); activity change, negative = inhibition: at 57.7 µM (top of the series) unless noted; further: nearly all actives have a fitted effect of over 70% in size; on activity change, negative = inhibition: 0% is about no effect
Sequence of UniProt Q9UGL1 (Q9UGL1 whole entry, looked up): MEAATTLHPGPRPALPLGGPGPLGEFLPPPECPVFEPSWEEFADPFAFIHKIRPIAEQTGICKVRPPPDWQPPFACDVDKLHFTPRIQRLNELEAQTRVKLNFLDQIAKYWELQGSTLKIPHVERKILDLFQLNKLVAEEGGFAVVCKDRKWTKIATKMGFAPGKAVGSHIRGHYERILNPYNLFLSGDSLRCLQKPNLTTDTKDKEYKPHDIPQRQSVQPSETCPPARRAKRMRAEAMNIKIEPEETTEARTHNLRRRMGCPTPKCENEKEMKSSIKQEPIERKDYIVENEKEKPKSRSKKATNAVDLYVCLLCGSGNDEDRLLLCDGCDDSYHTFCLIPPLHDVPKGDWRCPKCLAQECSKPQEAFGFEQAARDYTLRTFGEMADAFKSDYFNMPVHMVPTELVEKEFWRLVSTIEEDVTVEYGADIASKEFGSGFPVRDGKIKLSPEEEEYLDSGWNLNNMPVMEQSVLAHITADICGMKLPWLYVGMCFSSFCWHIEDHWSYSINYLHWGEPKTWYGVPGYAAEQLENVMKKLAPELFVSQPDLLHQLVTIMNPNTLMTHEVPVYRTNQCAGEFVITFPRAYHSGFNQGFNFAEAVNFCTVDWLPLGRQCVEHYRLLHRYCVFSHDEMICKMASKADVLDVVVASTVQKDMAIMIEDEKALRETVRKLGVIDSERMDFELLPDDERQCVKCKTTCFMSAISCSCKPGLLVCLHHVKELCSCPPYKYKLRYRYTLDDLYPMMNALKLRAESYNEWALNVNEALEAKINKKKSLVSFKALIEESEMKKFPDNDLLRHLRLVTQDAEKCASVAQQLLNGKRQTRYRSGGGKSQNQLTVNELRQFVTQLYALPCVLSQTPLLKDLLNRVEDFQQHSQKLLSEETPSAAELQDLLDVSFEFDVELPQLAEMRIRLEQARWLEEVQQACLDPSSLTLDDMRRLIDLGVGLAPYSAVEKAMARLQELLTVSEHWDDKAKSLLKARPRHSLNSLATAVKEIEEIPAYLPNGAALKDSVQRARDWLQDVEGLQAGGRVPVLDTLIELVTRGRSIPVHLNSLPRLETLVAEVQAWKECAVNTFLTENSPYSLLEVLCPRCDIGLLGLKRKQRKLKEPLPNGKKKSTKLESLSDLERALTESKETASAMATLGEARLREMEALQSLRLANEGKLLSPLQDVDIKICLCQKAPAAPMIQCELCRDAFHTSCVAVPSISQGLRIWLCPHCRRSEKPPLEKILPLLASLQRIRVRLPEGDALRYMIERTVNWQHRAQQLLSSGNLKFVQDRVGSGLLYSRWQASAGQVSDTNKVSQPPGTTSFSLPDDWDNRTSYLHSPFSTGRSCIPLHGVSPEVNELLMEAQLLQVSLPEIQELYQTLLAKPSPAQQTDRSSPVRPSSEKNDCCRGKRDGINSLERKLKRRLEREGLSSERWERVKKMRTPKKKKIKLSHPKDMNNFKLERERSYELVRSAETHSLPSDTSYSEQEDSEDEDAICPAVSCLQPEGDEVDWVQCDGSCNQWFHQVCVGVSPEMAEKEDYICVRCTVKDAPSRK
Summary of the method: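 KDM5BΔAP (200 nM final) in 50 mM HEPES pH 7.5, 0.01% Tween-20 was preincubated 10 min at RT with compound over a concentration range. Substrate mix (H3K4me3 12.5 µM, α-KG 25 µM, Fe²⁺, ascorbate, NAD⁺, FDH) was added, and NADH fluorescence change over 30 min gave dose-response curves.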
Potency means the concentration at half of the fitted maximal effect; tags describe the fitted curve by direction and shape.

Cc1c(C(=O)Nc2cccc(C(F)(F)F)c2)sc2c1C(c1cccc(O)c1)CC(=O)N2 (stereo unspecified) was tested. Which Potency did it give?
Its Potency is inconclusive: 11.2 µM [inhibitor, partial curve, poor fit].

For Cc1ccc(Cc2c(C)nc3c(C(=O)N4CCC(Cc5nncn5CC5CC5)CC4)cnn3c2C)cc1, which Potency is on record?
The Potency was active: 28.2 µM.

With CCCc1cc(NCCCO)n2c(nc3ccccc32)c1C#N as the molecule, how does the Potency read?
Its Potency is inconclusive: 10 µM [inhibitor, partial curve, poor fit].

With O=C1Nc2cc(Cl)ccc2C(=O)N2CCN(C(=O)C3CCCCC3)C[C@H]12 as the molecule, how does the Potency read?
The Potency was inconclusive: 50.1 µM [inhibitor, single point].

With COc1ccc(-c2nc(C)c(CCNC(=O)c3cccc(C)c3)s2)cc1OC as the molecule, how does the Potency read?
Its Potency is inconclusive: 15.8 µM [inhibitor, partial curve, poor fit].

With COc1ccc(C2NC(=O)N(C)C3=C2C(=O)N(c2ccccc2)C3)cc1 (stereo unspecified) as the molecule, how does the Potency read?
The Potency was inconclusive: 0.891 µM [inhibitor, full curve, poor fit].

C#CCNC(=O)C[C@@H]1c2nc(NC(=O)c3ccc(C(C)(C)C)cc3)sc2C[C@@H]2[C@](C)(CO)[C@H](O)CC[C@]21C was tested. Which Potency did it give?
Its Potency is active: 31.6 µM.

COc1ccc(-c2nc3c(C#N)c[nH]n3c2NC2CCCCC2)cc1 was tested. Which Potency did it give?
The Potency was inconclusive: 31.6 µM [inhibitor, single point].

How did the activity change, negative = inhibition turn out when COc1ccc(C(=O)Oc2c(Sc3ccc(C)cc3)c(C)nn2C(C)(C)C)c(OC)c1 was run?
Its activity change, negative = inhibition is inconclusive: -32.1% [inhibitor].

How did the Potency turn out when Cc1nc(-c2cccc(F)c2)sc1CCNC(=O)CC(C)C was run?
The Potency was inconclusive: 28.2 µM [inhibitor, partial curve, poor fit].

Which “activity change, negative = inhibition” value does the source give for CN1CCN(c2cc(=O)c3ccnc(N4CCN(c5ccccn5)CC4)c3o2)CC1 here?
The value was inactive: -18.8% [at 86.2 µM].

For NC(=S)N/N=C/c1c(O)ccc2ccccc12, which Potency is on record?
The Potency was inconclusive: 10 µM [inhibitor, partial curve, poor fit].

Which Potency does the source give for Nc1ccccc1OCc1ccccc1 here?
Its Potency is inconclusive: 28.2 µM [inhibitor, partial curve, poor fit].

O=C(CSc1c2c(nc3ccc(Cl)cc13)CCCC2)N1CCCCC1 was tested. Which Potency did it give?
Its Potency is inconclusive: 15.8 µM [inhibitor, partial curve, poor fit].

For Cc1ccc(Sc2ccc(NC(=O)c3cccc4ccccc34)cc2)c(C)c1, which Potency is on record?
The Potency was inconclusive: 31.6 µM [inhibitor, partial curve, poor fit].

For COCc1c(C(=O)N[C@@H]2CN(Cc3ccccn3)C[C@H]2CN(C)C)noc1C, which Potency is on record?
The Potency was inconclusive: 14.1 µM [inhibitor, partial curve].

How did the “activity change, negative = inhibition” value turn out when Cc1ccc(-n2nc(C)c3c(C)c(CCC(=O)NCc4cccc(Cl)c4)c(C)nc32)cc1C was run?
The value was inactive: -55.7%.

For Cc1cc(C)c(CNC(=O)c2nc(-c3cccnc3)cc3c2ccn3C(C)C)c(=O)[nH]1, which “activity change, negative = inhibition” value is on record?
Its value is inactive: -3600% [at 86.2 µM].

For CCOCCCn1c(=N)c(S(=O)(=O)c2ccccc2)cc2c(=O)n3cc(C)ccc3nc21, which Potency is on record?
The Potency was inconclusive: 1.26 µM [inhibitor, full curve, poor fit] and inconclusive: 31.6 µM [inhibitor, partial curve, poor fit].

O=C(O)CCn1c(=S)n(CCC(=O)O)c2ccccc21 was tested. Which “activity change, negative = inhibition” value did it give?
The value was inactive: 29.1%.

Which Potency does the source give for C[S+](=O)([O-])N1CCC(c2nnc3n2CCNC3)CC1 here?
The Potency was inconclusive: 63.1 µM [inhibitor, partial curve, poor fit].

For CC1=C(C(=O)OCc2ccc3c(c2)OCO3)C(c2ccc(Cl)cc2Cl)CC(=O)N1 (stereo unspecified), which Potency is on record?
Its Potency is inconclusive: 39.8 µM [inhibitor, single point].

How did the Potency turn out when COc1ccc(CCC(=O)NCc2nnc3c(-c4nc(C(C)C)no4)cccn23)cc1 was run?
The Potency was inconclusive: 31.6 µM [inhibitor, single point].

How did the Potency turn out when CC1=C[C@@H](CN2CCN(c3cnccn3)CC2)[C@H](C(C)C)C[C@H]1Cc1nnc(-c2ccccc2)o1 was run?
Its Potency is active: 28.2 µM.

COc1ccc(C(=O)Nc2nc3c(s2)C[C@@H]2[C@](C)(CO)[C@H](O)CC[C@@]2(C)[C@@H]3CC(=O)N2CCC(C)CC2)cc1 was tested. Which Potency did it give?
Its Potency is active: 28.2 µM.

COCCCn1c(C)cc(C(=O)N2CCCC(CO)CCNC(=O)CC2)c1C (stereo unspecified) was tested. Which “activity change, negative = inhibition” value did it give?
The value was inactive: -23.7%.

c1ccc(-c2nc(-c3cnccn3)no2)c(OC2CCNC2)c1 (stereo unspecified) was tested. Which Potency did it give?
Its Potency is inconclusive: 14.1 µM [inhibitor, partial curve, poor fit].

How did the Potency turn out when N#Cc1c(N)n[nH]c1CCCNC(=O)c1cc2ccccc2cc1O was run?
Its Potency is inconclusive: 3.55 µM [inhibitor, full curve, poor fit].

COc1ccccc1Cn1c(CNS(=O)(=O)c2c(C)cc(C)cc2C)nc2cccnc21 was tested. Which Potency did it give?
Its Potency is inconclusive: 35.5 µM [inhibitor, single point].

For CC(C)N1C[C@H](O)C[C@H]1c1nnc2n1CCN(C(=O)C1(c3ccccc3)CC1)CC2, which Potency is on record?
Its Potency is inconclusive: 28.2 µM [inhibitor, partial curve].

For COc1cccc(NC(=O)c2ccc3c(c2)CCC3)c1, which “activity change, negative = inhibition” value is on record?
The value was inactive: 20.7%.

Which “activity change, negative = inhibition” value does the source give for Cn1c(=O)c2c(nc(NCc3ccco3)n2Cc2ccccc2Br)n(C)c1=O here?
Its value is inactive: 3.71%.

Cc1c(CCC(=O)NCc2ccc3c(c2)OCO3)c(=O)oc2c(C)c(O)ccc12 was tested. Which Potency did it give?
Its Potency is inconclusive: 5.01 µM [inhibitor, full curve, poor fit].

How did the Potency turn out when CC(Oc1ccc(Cl)cc1Cl)C(=O)Nc1ccc2oc(-c3ccncc3)nc2c1 (stereo unspecified) was run?
Its Potency is inconclusive: 1.78 µM [inhibitor, partial curve, poor fit].

Which “activity change, negative = inhibition” value does the source give for CCN(CC)Cc1cnc2c(C(=O)NC(C3CC3)C3CC3)cnn2c1 here?
The value was inactive: -20.1%.

For CCCCCCCCCCCCSCCC(=O)O, which “activity change, negative = inhibition” value is on record?
Its value is inactive: 15.3%.

Cc1c(C(=O)N2CCOCC2)oc2c1-c1nn(CC(=O)NCc3ccccc3)cc1CC2 was tested. Which Potency did it give?
The Potency was inconclusive: 2.51 µM [inhibitor, partial curve, poor fit].

For Cc1ccc(CNC(=O)Nc2cccc(-c3ccc(N4CCOCC4)nn3)c2)cc1, which “activity change, negative = inhibition” value is on record?
The value was inactive: -2.86%.

Which “activity change, negative = inhibition” value does the source give for COCCN1C(=O)[C@H]2CN(Cc3cc(OC)ccc3OC)C[C@H]2C1=O here?
Its value is inactive: -19.7%.

Which Potency does the source give for Cn1c(NC(=O)c2ccco2)c(-c2cccc(C(F)(F)F)c2)c(=O)c2ccccc21 here?
The Potency was inconclusive: 22.4 µM [inhibitor, single point].

How did the “activity change, negative = inhibition” value turn out when COc1ccc(-c2cc(N3CCCC(NC(=O)c4cccc(F)c4)C3)n[nH]2)cc1 (stereo unspecified) was run?
The value was inactive: -20.1%.
